The campaign covered roughly 310,000 compounds. About 2,200 (0.71%) showed an effect of 50% or more. The effect is printed as a negative number. The list shows a part of the results.
Each molecule was assayed against human ether-à-go-go-related gene (hERG) potassium channel (human, UniProt Q12809) (assay: primary screen, population patch clamp on CHO cells stably expressing hERG).
Sequence of human ether-à-go-go-related gene (hERG) potassium channel (Q12809 whole entry, looked up): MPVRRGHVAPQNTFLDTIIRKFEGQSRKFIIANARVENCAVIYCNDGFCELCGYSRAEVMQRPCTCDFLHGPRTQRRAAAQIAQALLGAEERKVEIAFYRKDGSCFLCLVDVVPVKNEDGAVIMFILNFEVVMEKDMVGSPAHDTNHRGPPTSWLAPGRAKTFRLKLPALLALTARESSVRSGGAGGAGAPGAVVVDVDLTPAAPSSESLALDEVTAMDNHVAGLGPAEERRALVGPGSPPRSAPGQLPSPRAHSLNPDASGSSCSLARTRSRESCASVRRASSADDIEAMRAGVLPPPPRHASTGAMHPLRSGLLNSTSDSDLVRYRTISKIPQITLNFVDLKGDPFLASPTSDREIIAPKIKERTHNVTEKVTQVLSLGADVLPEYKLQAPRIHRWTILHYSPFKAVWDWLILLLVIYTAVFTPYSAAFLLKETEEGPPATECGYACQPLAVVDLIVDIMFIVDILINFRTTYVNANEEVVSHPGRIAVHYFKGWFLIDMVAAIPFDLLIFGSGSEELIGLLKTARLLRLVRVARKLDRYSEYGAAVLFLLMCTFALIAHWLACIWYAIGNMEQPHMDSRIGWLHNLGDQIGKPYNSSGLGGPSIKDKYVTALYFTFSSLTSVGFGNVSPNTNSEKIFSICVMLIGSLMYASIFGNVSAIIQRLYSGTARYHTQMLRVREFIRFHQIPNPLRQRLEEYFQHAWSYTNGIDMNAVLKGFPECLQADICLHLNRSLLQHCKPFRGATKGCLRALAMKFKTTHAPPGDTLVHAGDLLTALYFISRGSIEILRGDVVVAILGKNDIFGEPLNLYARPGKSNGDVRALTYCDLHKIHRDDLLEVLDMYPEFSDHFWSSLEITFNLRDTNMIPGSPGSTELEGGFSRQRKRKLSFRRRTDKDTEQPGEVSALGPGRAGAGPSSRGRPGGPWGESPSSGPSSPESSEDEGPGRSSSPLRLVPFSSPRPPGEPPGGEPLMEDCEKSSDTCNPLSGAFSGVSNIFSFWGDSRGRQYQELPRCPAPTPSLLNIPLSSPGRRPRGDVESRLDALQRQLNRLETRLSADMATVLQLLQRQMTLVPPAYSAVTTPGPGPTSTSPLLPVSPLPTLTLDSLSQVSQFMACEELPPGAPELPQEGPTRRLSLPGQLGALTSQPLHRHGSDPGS

| SMILES | hERG current change (%, negative = inhibition) at 1uM [%] |
| --- | --- |
| COc1ccc2c(C)c(CCC(=O)NC3CC3)c(=O)oc2c1C | 11 |
| O=C(CSc1ncccn1)N/N=C/c1ccc(OC2CSC2)cc1 | 2.44 |
| CSc1cccc(CN2CCC(Oc3cccc(C(=O)N4CCCC4)c3)CC2)c1 | 0.494 |
| Cc1cccc(N2C(=O)C(Oc3ccc(Cl)cc3Cl)C2C=O)c1C (centres unmarked) | -1.5 |
| O=C(C1=C[C@@H](c2ccc3c(c2)OCO3)C[C@@H](OCCCCO)O1)N1CCOCC1 | 17.1 |
| CC(NS(=O)(=O)c1ccc(Br)s1)c1ccccc1 (centres unmarked) | 13.1 |
| CCOC(=O)N1CCN(C(=O)CSc2nc(CC)nc3c2c(=O)n(C)c(=O)n3C)CC1 | 9.94 |
| CN(C)S(=O)(=O)c1ccc(Cl)c(C(=O)NCc2ccco2)c1 | 11.7 |
| Clc1ccccc1/C=N/c1cc(-c2ccccc2)nn1-c1ccccc1 | 13.2 |
| CCN(CC)CCN(C(=O)c1ccc(N2C(=O)CCC2=O)cc1)c1nc2cc3c(cc2s1)OCCO3.Cl | 6.37 |
| O=C(Nc1ncc2c(n1)-c1ccccc1OC2)c1ccc(Cl)cc1Cl | 8.68 |
| COc1ccccc1C(c1c(N)n(C)c(=O)n(C)c1=O)C(C)[N+](=O)[O-] (centres unmarked) | 9.39 |
| Cc1nc2ccc(NC(=O)COc3ccccc3F)cc2s1 | 14.1 |
| CC(=O)NN1C(=O)c2ccccc2NC1c1ccccc1O (centres unmarked) | 13.1 |
| CCN(CC)C(=O)c1ncn(Cc2ccccc2)c1C(=O)N(CC)CC | 16.1 |
| Fc1ccc(C2=CC(c3cccs3)n3nnnc3N2)cc1 (centres unmarked) | 9.9 |
| COc1ncccc1-c1nnn(-c2ccc(Cl)c(Cl)c2)n1 | 11.9 |
| O=C(Oc1ccc(N2C(=O)CCC2=O)cc1)c1ccco1 | 2.39 |
| CSc1cccc(NC(=O)CNC(=O)c2ccc3c(c2)OCO3)c1 | -2.54 |
| COc1ccccc1NC(=O)N1CCCC(CNC(=O)c2ccccc2Cl)C1 (centres unmarked) | 15.4 |
| c1ccc(Cn2nnnc2C(c2cccs2)N2CCSCC2)cc1 (centres unmarked) | 6.95 |
| O=c1[nH]nc(SCc2ccccc2)c(=O)[nH]1 | 6.14 |
| CS(=O)(=O)N(Cc1ccccc1)c1ccc(C(=O)Nc2ccc3c(c2)OCO3)cc1 | 0.276 |

| SMILES | hERG current change (%, negative = inhibition) at 1uM [%] |
| --- | --- |
| O=C(Cn1[nH]c(=O)c2ccccc2c1=O)OCC(=O)N(Cc1ccccc1)Cc1ccccc1 | 5.95 |
| Cc1ccc(C)c(OCc2cc(C(=O)NC(c3ccccn3)C(F)(F)F)no2)c1 (centres unmarked) | 12.9 |
| Cc1c(NC(NC(=O)CC(C)C)C(Cl)(Cl)Cl)c(=O)n(-c2ccccc2)n1C (centres unmarked) | 9.78 |
| O=C(Nc1nccs1)c1ccccc1[N+](=O)[O-] | 6.51 |
| COc1ccc(NC2CC(=O)N(c3cccc([N+](=O)[O-])c3)C2=O)cc1 (centres unmarked) | 1.88 |
| Cc1cc(C)n(C(=O)c2c([N+](=O)[O-])c(C)nn2C)n1 | 16.2 |
| COc1ccc(NC(=O)c2ccc(Cl)nc2)cc1S(=O)(=O)N1CCOCC1 | 10.2 |
| COC(=O)C1=C(N)Oc2cc(C)n(C)c(=O)c2C1c1ccc(Cl)c(Cl)c1 (centres unmarked) | 15.5 |
| O=C(NCc1ccco1)c1cccn2c(=O)c3sccc3nc12 | -9.54 |
| O=CN1CCN(c2ncnc3c2nnn3Cc2c(F)cccc2Cl)CC1 | 12.7 |
| O=c1[nH]c(=O)n(Cc2ccccc2Cl)c(O)c1/C=C1/C=CC=N1 | 17.9 |
| CN(C)C(CNC(=O)c1cccc(C(F)(F)F)c1)c1ccco1 (centres unmarked) | 5.35 |
| O=C(N/N=C/c1cccc([N+](=O)[O-])c1O)c1cccs1 | -1.55 |
| CCOc1ccccc1-n1nnnc1SC(C)C(=O)OC (centres unmarked) | 10.5 |
| COc1ccc2oc(=O)cc(CN3CCOCC3)c2c1 | 10.4 |
| NS(=O)(=O)c1ccc(CCNC(=O)C2CCCN(S(=O)(=O)c3cccnc3)C2)cc1 (centres unmarked) | -4.45 |
| CCOC(=O)c1ccc(NC(=O)c2nc[nH]c2C(=O)N(C)Cc2ccccc2)cc1 | 9.44 |
| Cc1ccc(C2(c3ccc(C)cc3)CC2C(=O)NCc2cccnc2)cc1 (centres unmarked) | 11.4 |
| O=C(NCCc1csc(-c2cccnc2)n1)c1cccc(Cl)c1 | 4.15 |
| Cc1cc([N+](=O)[O-])nn1CCC(=O)NC1CCCCCC1 | 2.84 |
| C/C(CC(=O)N(C(C)C)C(C)C)=N\NC(=O)c1ccccc1Br | 19.6 |
| COc1ccc(N(CC(=O)N2CCN(Cc3ccc4c(c3)OCO4)CC2)S(=O)(=O)c2ccc(F)cc2)cc1 | -24.5 |
| COC(=O)C1=C(c2ccccc2OCc2ccccc2)C[C@@H]2CC[C@H]1N2C(=O)NCc1ccc(OC)c(OC)c1 | 11.2 |

| SMILES | hERG current change (%, negative = inhibition) at 1uM [%] |
| --- | --- |
| CCOC(=O)c1cc2c(=O)n3ccccc3nc2n(CC2CCCO2)c1=NC(=O)/C=C/c1ccccc1 (centres unmarked) | 1.02 |
| Cc1nc(/N=C\N(C)C)sc1C(=O)Nc1ccccc1 | 10.9 |
| NS(=O)(=O)c1ccc(NC=C2C(=O)OC3(CCCCC3)OC2=O)cc1 | 6.95 |
| O=c1cc(N2CCc3ccccc3C2)[nH]c(=O)n1C1CCCCC1 | 11.9 |
| CC(=O)Cc1nsc(NC(=O)c2ccccc2)n1 | 18.5 |
| CCN1CCN(Cc2nnc(-c3ccccc3)o2)CC1 | 1.55 |
| COc1ccc(NC(=S)N2CCCC2)cc1OC | 11.9 |
| CCCOC(=O)c1ccc(NC(=O)c2ccc(Br)o2)cc1 | 4.8 |
| CC(=O)c1c(C)[nH]c(C(=O)OCC(=O)N2CC(C)OC(C)C2)c1C (centres unmarked) | 23.6 |
| CC(=O)N(Cc1ccccc1)c1c(N)nc(N)[nH]c1=O | 11.9 |
| CC(C)Oc1cc(NC(=O)CS(=O)CC(=O)N(C)C)c(Cl)cc1Cl (centres unmarked) | 10.1 |
| CC(C)CC(NC(=O)c1ccccc1NC(=O)c1ccccc1)C(=O)O (centres unmarked) | 8.06 |
| O=C(NC1(C(F)(F)F)N=C(c2ccccc2)NC1=O)c1ccccc1 (centres unmarked) | 9.23 |
| O=C(CNC(=O)c1ccccc1Cl)N/N=C/C=C/c1ccccc1 | 2.93 |
| CCNC(=O)C1CC(=O)N(c2ccc(Br)cc2)C1 (centres unmarked) | 5.59 |
| CS(=O)(=O)Nc1ccc(C2=NN(C(=O)CCCC(=O)O)C(c3cccs3)C2)cc1 (centres unmarked) | 12.1 |
| Oc1c(Br)cc(Br)cc1CNc1cnc2ccccc2c1 | 16.5 |
| COc1cc(/C=N/Nc2ccccc2)ccc1OC(=O)c1cccs1 | 11.6 |
| CCc1sc(NC(=O)COC)nc1-c1ccccc1 | -0.229 |
| COc1ccc(NC(=O)C(OC)c2ccccc2)cc1Cl (centres unmarked) | 17.9 |
| O=C(NCCCN1CCCC1=O)c1ccc2c(=O)n(-c3ccc(F)cc3)c(=S)[nH]c2c1 | 12.1 |
| COc1ccc(-n2nc(C(=O)NCC(=O)NCc3ccccc3OC)c3ccccc3c2=O)cc1 | -31.4 |
| O=C(CCn1c(=O)sc2ccccc21)NCCC1=CCCCC1 | 11.8 |

| SMILES | hERG current change (%, negative = inhibition) at 1uM [%] |
| --- | --- |
| COc1ccc(-c2nnn(Cc3nc(N)nc(N4CCCCC4)n3)n2)cc1 | 0.639 |
| Cc1ccc(N2CCN(CCc3nc4cc(NC(=O)c5ccco5)ccc4n3C)CC2)cc1 | -37.9 |
| CNc1ncc(C(=O)c2ccc(Cl)c(Cl)c2)s1 | 3.31 |
| COc1ccc(CCNC(=O)C23CN(Cc4ccccc4)CC2C(c2ccc([N+](=O)[O-])cc2)=NO3)cc1 (centres unmarked) | -4.06 |
| Cn1nc(C(C)(C)C)c(NC(=O)c2sccc2Cl)c1C(C)(C)C | 5.58 |
| CC(=O)NNC(=S)Nc1cccc(F)c1 | 6.88 |
| CC(C)C[C@H](NC(=O)N1CCn2c1nc1ccccc12)C(=O)N1CCCCC1 | 12.3 |
| CCOC(=O)c1c(C)[nH]c(C)c1C(=O)CSc1nnc(-c2ccco2)n1Cc1ccccc1 | 7.51 |
| COc1ccc(-c2csc(NC(=O)CSc3nnnn3C)n2)cc1OC | 9.13 |
| COc1ccccc1-n1c(=O)[nH]c2c(C(N)=O)nc(CC(C)C)nc21 | 7.02 |
| Cl.O=C(CCN1CCCCCC1)Nc1ccccc1F | 5.74 |
| COc1cc(NC(=O)COc2ccc(Cl)cc2)ccc1NC(=O)C(C)C | 15.1 |
| CCc1nnc(NC(=O)CSc2nnc3ncccn23)s1 | 15.5 |
| COc1ccccc1C(=O)O/N=C(\N)c1ccccc1Cl | -3.81 |
| CCc1ccc(-c2nc(CS(=O)CC(=O)NC3CC3)c(C)o2)cc1 (centres unmarked) | 12 |
| CCN1CCc2c(sc(NC(=S)NC(=O)c3ccccc3)c2C#N)C1 | 2.98 |
| Cn1nc(C(F)(F)F)c2cc(C(=O)O)sc21 | 14.1 |
| CN(C)c1ccc(NC(=O)Cn2ncn3c(cc4ccccc43)c2=O)cc1 | 11.9 |
| Cc1ccccc1/C=N\NC(=O)c1ccccc1-n1cccc1 | 17.1 |
| COc1ccccc1CNC(=O)C1CC2Cn3c(nc4cc(C)c(C)cc43)C2N1C (centres unmarked) | 8.24 |

Source: article PMC4336329 (PLoS ONE, 2015)
